Laboratory results: the RNAGym collection of RNA variant scans (doi:10.1093/nar/gkz1192)
The source gives no read counts; variants with many changes may rest on few reads.

B1: CPEB3 Ribozyme (parent)
chain: UAACAGGGGGCCACAGCAGAAGCGUUCACGUCGCAGCCCCUGUCAGAUUCUGGUGAAUCUGCGAAUUCUGCUGUAUAUCUC

Variants of: B1
Test: self-cleavage, relative activity (ratio to wild type); higher = more cleavage; in vitro, sequencing
Method in brief: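 CPEB3 self-cleaving ribozyme mutant libraries were made by rounds of error-prone PCR, barcoded, and transcribed in vitro with T7 RNA polymerase for 5 hours at 37°C. Cleavage occurred during transcription and a 15 min DNase I step before EDTA stop. RNAs were reverse transcribed with template switching and Illumina-sequenced, with DNA sequencing mapping barcodes to variants. Relative activity is the variant's cleaved/total read fraction divided by wild type's (minimum 5 reads), averaged across three batches.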

Variant	self-cleavage
A28G U51C U58G A65G	0.32
A28G U51C U67G C79U	0.13
A28G U51C U69A	0.42
A28G U54A U74C	1.19
A28G U54C U72G	0.48
A28G U60A U72C	0.06
A28G U60C U67C	0.11
A28G U60C U72G U78C	0.17
A28G U66C U78G	0
A28G U67A U69A A75U	0.14
A28G U67C U78A U80A	0.14
A28G U72C C79U	0.9
A28G U76A C81U	0.93
A28G U76A U78C	0.6
A28U A35G A56G A65G A77U	1.04
A28U A35G C37G G70C	0.09
A28U A35G U43C A56U U67G	0.23
A28U A35G U60C	0.81
A28U A35G U78G	1.28
A28U A35U G36A U43A U78C	0.33
A28U A35U U41A C50A U54C U69G	0.11
A28U A35U U54C U58C	0.09
A28U A45G A75U	0.54
A28U A45G U60C U78A	0.9

Variant	self-cleavage
A28U A45U U48C A56G G63A A64G	0.06
A28U A45U U66C	0.08
A28U A56U A65G	0.14
A28U A56U U76A	0.42
A28U A57G U58A	0.1
A28U A57G U60C U69C	0.23
A28U A57U U69C	0.19
A28U C32A U41C U72C	0.09
A28U C34U A56G U67A U72C	0.16
A28U C38A A45U	0.1
A28U C38U C50A U69A U74A	0.06
A28U C40G G42U A57G U69C	0.12
A28U C40U U51A	0.67
A28U C40U U60C	0.3
A28U C50A A56U U67A	0.24
A28U G33C A47C	0.15
A28U G42A U80C	0.41
A28U G46A U66A C68U U69C U74C	0.1
A28U G46U U54C	0.21
A28U G70A U78C	0.5
A28U U31A U41C	0.24
A28U U31A U48A U76G	0.09
A28U U31A U76G	0.26
A28U U31C A57G	0.31

Variant	self-cleavage
A28U U31C G33C A64U	0.18
A28U U31G A35G U69A U74C U78C	0.54
A28U U41A A56G A65G	0.13
A28U U41A A65G	0.07
A28U U41A U76A	0.09
A28U U41C A47U U60C G61A A77U	0.1
A28U U41C A65G	0.31
A28U U43A G61U A77U	0.43
A28U U43A U51C G52A U69A	0.41
A28U U43A U72A	0.64
A28U U43C A45U U72A	0.37
A28U U43C A77G	0.32
A28U U43C G53A U69C	0.13
A28U U43C U48C U54C U80C	0.1
A28U U43C U49C U58C U72A	0.17
A28U U43G G46U U51A A57G U72A	0.15
A28U U48C U67A C79A	0.11
A28U U49C G53A	0.23
A28U U49C G55C A65G U69G U78C U80G	0.13
A28U U49C U54C U72A	0.11
A28U U51C U76C	0.83
A28U U51G U54C C68A	0.16
A28U U54A U78C	0.79
A28U U58A G70U	0.14

Variant	self-cleavage
A28U U60C A64G	0.24
A28U U66C U69C U78C	0.17
A28U U76A U78C	0.71
A28U U76C U80C	1.11
C29A A35G A45G	0.96
C29A A35G C38U U60A	0.64
C29A A45G A47G G52A	0.22
C29A A64G U69A U80C	0.11
C29A C39U U41A U80C	0.25
C29A C39U U58C	0.21
C29A U31C U67C	0.09
C29A U41A G53A U78C	0.13
C29A U41G A47G U74A	0.13
C29A U48C C50G A64G A77C	0.06
C29A U49A U78C	0.16
C29A U49C U54C	0.13
C29G A45G U54A	0.1
C29G A45G U78C	0.15
C29G A45U U48C U69A	0.06
C29G A56U U60G U80C	0.11
C29G A64G U66C U76A	0.16
C29G C34G A47G U60A G70A	0.1
C29G C40A U43C	0.27
C29G U31A C40U U41A A47G U58C U72C	0.07

Variant	self-cleavage
C29G U31C A45G U72C	0.07
C29G U31C A64G U69A	0.05
C29G U49C U54C	0.23
C29G U49C U69C	0.09
C29U A35G A45U U69C	0.23
C29U A35G A47U U74A	1.03
C29U A35G G63C	1.21
C29U A35U A45G C62U U69C	0.07
C29U A35U A56U	0.22
C29U A35U U43C G52U A57G U69A	0.09
C29U A35U U60C	0.08
C29U A45C A47G	0.18
C29U A45C U48C U78C	0.06
C29U A47G U51C U80A	0.29
C29U A47U U69A	0.14
C29U A56G U72C U78C	0.33
C29U A56U G63A A65U U67C U74G	0.11
C29U A57C U67A	0.13
C29U A65G U72A	0.18
C29U A75G U76A	0.5
C29U A75U A77U	0.51
C29U C34U U43C U48C U78A	0.11
C29U C37A U41C U51A	0.25
C29U C38U U67C A77G	0.09

Variant	self-cleavage
C29U C39U A45C G46U A57G A64G	0
C29U C39U A56G A64G	0.11
C29U G46A U74C	0.09
C29U U31A A64U	0.23
C29U U31C A45U U51C U78A	0.13
C29U U41A A64G U76C	0.17
C29U U41A U51G A77U	0.29
C29U U41C A65G	0.27
C29U U41C U49C U69C	0.07
C29U U49C A65G	0.3
C29U U54C A65G U66C U78C U80A	0.08
C29U U54G A57G U66C U67A	0.16
C29U U60C U72A	0.17
C29U U69C U72C	0.07
C29U U69C U78C	0.16
G30A A35G U49C G52U U74C U76C	0.07
G30A A35U A45G U58G U60A	0.05
G30A A35U U49C	0.1
G30A A45G U58G	0.09
G30A A45U G53U U54C	0.13
G30A A64G U72C U74A	0.14
G30A A64U A65G	0.22
G30A C34G U76C	0.21
G30A C38A A65U	0.13

Variant	self-cleavage
G30A C39A A45G	0.38
G30A C50A U74C U78C	0.06
G30A G36A U67C	0.04
G30A U31A C59U U78C	0.06
G30A U31A G55C U66C	0.17
G30A U31C C59A	0.07
G30A U31C U48C A75G U78C	0.07
G30A U31C U66C	0.13
G30A U31C U67C	0.08
G30A U43C A45G U48C	0.07
G30A U43G U51C U72C	0.1
G30A U43G U69A A75G U80A	0.12
G30A U48C G55U U60C A65U	0.33
G30A U48C U69C U74C	0.13
G30A U49A A64G	0.08
G30A U49C U51C U74C	0.21
G30A U51C A56U U60C	0.08
G30A U72C A75G	0.09
G30C A35G U48C	0.11
G30C A65C U69A	0.09
G30C C37U A45U	0.18
G30C U31C U49C	0.08
G30C U48C U58A G70C	0.09
